Test results from publication PMC5555201, “Parallel homodimer structures of the extracellular domains of the voltage-gated sodium channel β4 subunit explain its role in cell–cell adhesion” (The Journal of Biological Chemistry, 2017).
No constants are given. Whether binding was seen depends on the method and setting. For some assays here: Binding seen in cells or lysates may run through a third protein. Some binding calls cover weakened binding; strength is not graded here.

Key:
[1] = molecular target: human β4 subunit extracellular domain fragment (residues 30–152) (human) (UniProt Q8IWT1); assay: SEC; monomer fraction at 9 mg/ml incubated 0–12 h at 20 °C under non-reducing conditions; Superdex 75 10/300 GL in 20 mM Tris-HCl (pH 8.0), 150 mM NaCl, 10% glycerol, 5 mM β-mercaptoethanol at 4 °C; fractions on reducing SDS-PAGE; both purified
[2] = molecular target: human β4 subunit extracellular domain fragment (residues 30–152) (human) (UniProt Q8IWT1); assay: crystal structure; human β4ex, hexagonal crystal form, 2.2 Å; 10% PEG1000 and 10% PEG8000, 20 °C; both purified
[3] = molecular target: WT full-length β4 (mouse) protein stably expressed in CHO cells (mouse) (UniProt Q7M729); assay: cross-linking; CHO cells stably expressing β4 incubated with 1 mM BS^3 (cell-impermeable) in PBS for 30 min at room temperature; Western blot with anti-β4
[4] = molecular target: WT full-length β4 (mouse) protein stably expressed in CHO cells (mouse) (UniProt Q7M729); assay: SDS-resistant dimer band on Western blot; lysates of CHO cells stably expressing β4, no cross-linker; LDS sample buffer with 5 mM DTT, 70 °C 3 min; probed with anti-β4
[5] = molecular target: mouse β4 mutant with a deletion of the N-terminal segment (residues 30–37), stably expressed in CHO cells (mouse) (UniProt Q7M729); assay: as above

B1: human β4 subunit extracellular domain fragment (residues 30–152) (domain or fragment, UniProt Q8IWT1-1 30-152, looked up)
chain: SLEVSVGKATDIYAVNGTEILLPCTFSSCFGFEDLHFRWTYNSSDAFKILIEGTVKNEKSDPKVTLKDDDRITLVGSTKEKMNNISIVLRDLEFSDTGKYTCHVKNPKENNLQHHATIFLQVV
notes: voltage-gated sodium channel β4 subunit, human, GenBank NP_777594, residues 30–152; all three Cys residues kept; His tag cleaved by tobacco etch virus protease; also called human β4ex; human β4 (hexagonal form); source: E. coli cell-free protein synthesis, purified (HisTrap, HiTrap Q, Superdex 75); not shown: His tag, N-terminal, cleaved
For B1, the binding [1] was “binds” and the binding [2] was “binds”.

B2: WT full-length β4 (mouse) protein stably expressed in CHO cells (protein, UniProt Q7M729 31-228)
chain: LEVSVGKATTIYAINGSSILLPCTFSSCYGFENLYFKWSYNNSETSRILIDGIVKNDKSDPKVRVKDDDRITLEGSTKEKTNNISILLSDLEFSDTGRYTCFVRNPKEKDLNNSATIFLQVVDKLEKVDNTVTLIILAVVGGVIGLLVCILLLKKLITFILKKTREKKKECLVSSSGNDNTENGLPGSKAEEKPPTKV
modifications: N-glycosylated (β4 protein expressed in CHO cells is N-glycosylated)
With B2 the binding [3] was “binds” and the binding [4] was “binds”.

B3: mouse β4 mutant with a deletion of the N-terminal segment (residues 30–37), stably expressed in CHO cells (protein, UniProt Q7M729)
chain: ATTIYAINGSSILLPCTFSSCYGFENLYFKWSYNNSETSRILIDGIVKNDKSDPKVRVKDDDRITLEGSTKEKTNNISILLSDLEFSDTGRYTCFVRNPKEKDLNNSATIFLQVVDKLEKVDNTVTLIILAVVGGVIGLLVCILLLKKLITFILKKTREKKKECLVSSSGNDNTENGLPGSKAEEKPPTKV
In the case of B3, the binding [5] is reported as “no binding”.
